# The name of at least one read-out is uncertain.
# Test system: creatine phosphate concentration in the myocardium
# Assay: Cardio-protective action against hypoxic cardiac metabolism disorders, oral, rats
# Assay type: in vivo, rat (Wistar)
# Conditions: 6 hours after oral administration, at the dose with maximum effect (E7 of same line); hypoxia 2% O2; verapamil value footnoted not significant
row,SMILES,"Creatine phosphate concentration in the myocardium, deviation from the control"
1,"CCCCCCCCCCCCC(C#N)(CCCN(C)CCc1cccc(OC)c1)c1cccc(OC)c1 (stereo not drawn) [Example 3, 1,7-bis-(3-Methoxyphenyl)-3-methylaza-7-cyano-nonadecane]",+77%
2,"CCCCCCCCCCCCC(C#N)(CCCN(C)CCc1cccc(OC)c1)c1ccc(OC)c(OC)c1 (stereo not drawn) [Example 19, 1-(3-Methoxyphenyl)-3-methylaza-7-cyano-7-(3,4-dimethoxyphenyl)-nonadecane]",+38%
3,"CCCCCCCCCCCCC(C#N)(CCCN(C)CCc1cccc(OC)c1)c1ccccc1 (stereo not drawn) [Example 8, 1-(3-Methoxyphenyl)-3-methylaza-7-cyano-7-phenyl-nonadecane]",+35%
4,"CCCCCCCCCCCCC(C#N)(CCCN(C)CCc1ccccc1)c1cccc(OC)c1 (stereo not drawn) [Example 7, 1-Phenyl-3-methylaza-7-cyano-7-(3-methoxyphenyl)-nonadecane]",+49%
5,"CCCCCCCCCCCCC(C#N)(CCCN(C)CCc1ccc(Cl)cc1)c1cccc(OC)c1 (stereo not drawn) [Example 67, 1-(4-Chlorophenyl)-3-methylaza-7-cyano-7-(3-methoxyphenyl)-nonadecane]",+53%
6,"CCCCCCCCCCCCC(C#N)(CCCN(C)CCc1ccccc1)c1ccc2c(c1)COCO2 (stereo not drawn) [Example 17, 1-Phenyl-3-methylaza-7-cyano-7-(1,3-benzodioxan-6-yl)-nonadecane]",+51%
7,"CCCCCCCCCCCCC(C#N)(CCCNCCc1cccc(OC)c1)c1cccc(OC)c1 (stereo not drawn) [Example 75, 1,7-bis-(3-Methoxyphenyl)-3-aza-7-cyano-nonadecane]",+80%
8,"CCCCCCCCCCCCC(C#N)(CCCN(C)CCc1ccccc1)c1ccccc1 (stereo not drawn) [Example 5, 1,7-Diphenyl-3-methylaza-7-cyano-nonadecane]",+69%
9,"CCCCCCCCCC(C#N)(CCCN(C)CCc1ccccc1)c1ccccc1 (stereo not drawn) [Example 10, 1,7-Diphenyl-3-methylaza-7-cyano-hexadecane]",+35%
10,"CCCCCCCCCCCCC(C#N)(CCCN(C)CCc1cccc(OC)c1)c1ccc2c(c1)COCO2 (stereo not drawn) [Example 16, 1-(3-Methoxyphenyl)-3-methylaza-7-cyano-7-(1,3-benzodioxan-6-yl)-nonadecan]",+50%
11,"CCCCCCCCCCCCC(C#N)(CCCN(C)CCc1cccc(OC)c1)c1cc(OC)c(OC)c(OC)c1 (stereo not drawn) [Example 20, 1-(3-Methoxyphenyl)-3-methylaza-7-cyano-7-(3,4,5-trimethoxyphenyl)-nonadecane]",+38%
12,"CCCCCCCCCCCCC(C#N)(CCCN(C)CCc1cc(OC)c(OC)c(OC)c1)c1cccc(OCC)c1 (stereo not drawn) [Example 72, 1-(3,4,5-Trimethoxyphenyl)-3-methylaza-7-cyano-7-(3-ethoxyphenyl)-nonadecane]",+38%
